# Data from the supplement of paper PMC7826260.
# Some of the results follow. The data describe in vitro nicking of single-stranded DNA by Rep domains for 1 h at 37 °C with 3 µM enzyme; only the middle of the 90-letter strands is printed. The score is log2 (uncut reads / reads without enzyme); strong cutting gives strongly negative numbers. There is no active / inactive call. Because reads are shares of a total, they shift together; values above 0 arise when much of the pool is cut.
# Tested on: T1, Rep nickase domain of tomato golden mosaic virus
# T1 sequence (residues 1-124 of Rep, tag left off): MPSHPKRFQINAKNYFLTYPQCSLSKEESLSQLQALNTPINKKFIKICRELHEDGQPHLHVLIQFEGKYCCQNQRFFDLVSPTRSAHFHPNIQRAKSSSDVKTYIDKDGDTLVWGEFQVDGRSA
# Assay: uncleaved DNA left, log2 of reads against the no-enzyme library (log2 ratio); higher = less cleavage (more negative = more Rep cleavage of the k-mer); sequences stand for … in CTCGTCCG…ACCGGAGA
# Method: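 A pool of 90-nt single-stranded DNAs with seven random bases just before the constant AC of the nick site (name = the seven bases) was cut by 3 µM recombinant His6-SUMO-tagged Rep nickase domain (300 nM DNA, 50 mM HEPES pH 8.0, 50 mM NaCl, 1 mM MnCl2, 1 h, 37 °C, three replicates). Uncut DNA was amplified and sequenced.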
row,Sequence,uncleaved DNA left (log2)
1,GCGCCTG,-0.00615
2,CTCTTGT,-0.323
3,ATAACCT,-0.0204
4,AGTGTTG,0.191
5,CCGGAGT,-0.0489
6,GGTCGCA,0.105
7,GGTTGCT,-0.0667
8,GCGTGGA,0.037
9,GCATCGG,0.213
10,TGCTGTA,-0.0757
11,TCGGGCG,0.0868
12,AATGCTC,-0.0197
13,GTAATAC,0.0867
14,ACTTACT,-0.0213
15,GGCGGCT,-0.00107
16,TAAGGGA,0.166
17,GAAGACG,0.128
18,TGACCCA,-0.00107
19,TTTAGCT,-0.0832
20,GGTGGTT,-0.0155

row,Sequence,uncleaved DNA left (log2)
1,TGGACCT,0.15
2,CGCTACC,-0.277
3,CGACTCA,-0.00756
4,ACTCCTC,-0.0344
5,ATCAAAA,-0.0622
6,TAAACCA,-0.187
7,GTCAACC,-0.039
8,CACGGTC,-0.0123
9,TAACGCA,-0.104
10,TAGGCCT,0.0254
11,TAACGGT,0.137
12,TGAAACT,0.14
13,CGCCAGT,-0.0613
14,AGATGCC,-0.00213
15,AGTGGGT,0.133
16,TTCTGTT,-0.304
17,GGGCTGT,0.0782
18,CGGAAGT,-0.0783
19,GCACGTC,-0.015
20,ATGCACG,-0.132
